According to patent US20230242615A1 (BEIJING VDJBIO, published 2023):

T1: Interleukin 4 (human, UniProt P05112 25-153)
T1 sequence: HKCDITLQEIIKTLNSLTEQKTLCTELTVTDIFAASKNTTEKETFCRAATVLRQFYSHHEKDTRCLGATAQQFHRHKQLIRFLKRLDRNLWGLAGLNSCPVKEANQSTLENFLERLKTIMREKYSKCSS

B1: IL13Rα2-(GGGGS)2-IL4Rα-(GGGGS)2-hIgG4 Fc S228P (Fc fusion)
chain: DTEIKVNPPQDFEIVDPGYLGYLYLQWQPPLSLDHFKECTVEYELKYRNIGSETWKTIITKNLHYKDGFDLNKGIEAKIHTLLPWQCTNGSEVQSSWAETTYWISPQGIPETKVQDMDCVYYNWQYLLCSWKPGIGVLLDTNYNLFYWYEGLDHALQCVDYIKADGQNIGCRFPYLEASDYKDFYICVNGSSENKPIRSSYFTFQLQNIVKPLPPVYLTFTRESSCEIKLKWSIPLGPIPARCFDYEIEIREDDTTLVTATVENETYTLKTTNETRQLCFVVRSKVNIYCSDDGIWSEWSDKQCWEGEDLSKKTLLRGGGGSGGGGS[here about 200 residues without letters]GGGGSGGGGS[here human IgG4 Fc with S228P (EU numbers) without letters]
notes: also called IL13Rα2-IL4Rα-Fc; IL13Ra2-IL4Rα-Fc
B2: Interleukin 13 (ligand)
chain: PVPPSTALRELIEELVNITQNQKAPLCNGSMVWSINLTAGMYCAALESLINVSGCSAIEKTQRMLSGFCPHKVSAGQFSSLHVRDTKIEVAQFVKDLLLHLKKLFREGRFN
notes: also called IL13; IL-13

Tests used:
Interleukin 4 [1] = target: T1, Interleukin 4; assay: cell-based or functional assay
Interleukin 13 [2] = target: B2; assay: cell-based or functional assay
Interleukin 4 [3] = target: T1, Interleukin 4; assay: SPR, BIAcore 3000; fusion polypeptide immobilized on the chip, cytokine in flow, 25 C
Interleukin 13 [4] = target: B2; assay: as above
IL4Rα-IL13Rα2-Fc = target: T2, IL4Rα-IL13Rα2-Fc (Homo sapiens (Human), UniProt P24394 26-232; Q14627 27-343); assay: as above
T2 construct: Comparison construct named only by its order of components; not shown: Fc

IL13Rα1-IL4Rα-Fc = target: T3, IL13Rα1-IL4Rα-Fc (Homo sapiens (Human), UniProt P78552 22-343; P24394 26-232); assay: as above
T3 construct: Comparison construct named only by its order of components; not shown: Fc

IL4Rα-IL13Rα1-Fc = target: T4, IL4Rα-IL13Rα1-Fc (Homo sapiens (Human), UniProt P24394 26-232; P78552 22-343); assay: as above
T4 construct: Comparison construct named only by its order of components; not shown: Fc

[5] = target: B1; assay: ELISA, fusion polypeptide coated, IL13 in a gradient mixed with fixed IL4 (1 ng/ml) as competitor, detection with HRP anti-IL13 antibody; signal as a ratio to IL13 without IL4

Interleukin 13, sequence (P35225 other isoform, or with tags, fused parts or gaps limits assumed): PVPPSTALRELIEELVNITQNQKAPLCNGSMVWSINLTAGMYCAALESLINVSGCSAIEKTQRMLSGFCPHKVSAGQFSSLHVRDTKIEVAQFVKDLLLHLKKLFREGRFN

IC50 (nM) Blocking IL4, TF-1 cell proliferation (Interleukin 4 [1]) | Relative activity (blocking IL4, against Dupilumab) (Interleukin 4 [1]) | IC50 (nM) Blocking IL13, TF-1 cell proliferation (Interleukin 13 [2]) | Relative activity (blocking IL13, against Dupilumab) (Interleukin 13 [2]) | Kd (Interleukin 4 [3]) | koff (Interleukin 4 [3]) | kon (Interleukin 4 [3]) | Kd (Interleukin 13 [4]) | koff (Interleukin 13 [4]) | kon (Interleukin 13 [4]) | Kd (IL4Rα-IL13Rα2-Fc) | koff (IL4Rα-IL13Rα2-Fc) | kon (IL4Rα-IL13Rα2-Fc) | Kd (IL13Rα1-IL4Rα-Fc) | koff (IL13Rα1-IL4Rα-Fc) | kon (IL13Rα1-IL4Rα-Fc) | koff (IL4Rα-IL13Rα1-Fc) | kon (IL4Rα-IL13Rα1-Fc) | binding result [5] | Binder
1.1 nM | 2.8 fold | 1.02 nM | 20.1 fold | 0.0741 nM | 0.0035 s⁻¹ | 4.72e+07 M⁻¹ s⁻¹ | 0.0168 nM | 2.45e-05 s⁻¹ | 1.46e+06 M⁻¹ s⁻¹ |  |  |  |  |  |  |  |  |  | B1
 |  |  |  |  |  |  |  |  |  | 0.0425 nM | 6.03e-05 s⁻¹ | 1.42e+06 M⁻¹ s⁻¹ | 0.565 nM | 7.52e-05 s⁻¹ | 133000 M⁻¹ s⁻¹ | 9.85e-05 s⁻¹ | 101000 M⁻¹ s⁻¹ | binds | B2
